Reference: paper PMC7256200, “Identifying a Molecular Mechanism That Imparts Species-Specific Toxicity to YoeB Toxins” (Frontiers in Microbiology, 2020)

Molecular target: the molecule itself
Assay: SEC-MALS; Separately purified proteins; Superdex 200 Increase 10/30 GL, 25 mM HEPES pH 7.5, 150 mM NaCl, room temperature; monomer to dimer

B1: His-AtYefM antitoxin (Atu2018) from Agrobacterium tumefaciens, pET15b construct, His tag kept (natural protein)
chain: MANVRFTEFRQNFATHFDRVLETRAPLLVTRQGKEAVVVLAEGEYESMQETLHLLSNPANASRLRASMGELERGDTIERDPTEE
notes: Cloned into pET15b; source: E. coli BL21 (DE3), purified (NiNTA, Superdex 75)
B1 was tested, and the “stoichiometry N” value was 2.
